Laboratory results: publication PMC4336329 (PLoS ONE, 2015)
Out of some 310,000 compounds screened, about 2,200 (0.71%) showed an effect of 50% or more. The effect is printed as a negative number. The list shows a part of the results.

molecular target: human ether-à-go-go-related gene (hERG) potassium channel (human, UniProt Q12809); test: primary screen, population patch clamp on CHO cells stably expressing hERG
Sequence (Q12809 whole entry, looked up): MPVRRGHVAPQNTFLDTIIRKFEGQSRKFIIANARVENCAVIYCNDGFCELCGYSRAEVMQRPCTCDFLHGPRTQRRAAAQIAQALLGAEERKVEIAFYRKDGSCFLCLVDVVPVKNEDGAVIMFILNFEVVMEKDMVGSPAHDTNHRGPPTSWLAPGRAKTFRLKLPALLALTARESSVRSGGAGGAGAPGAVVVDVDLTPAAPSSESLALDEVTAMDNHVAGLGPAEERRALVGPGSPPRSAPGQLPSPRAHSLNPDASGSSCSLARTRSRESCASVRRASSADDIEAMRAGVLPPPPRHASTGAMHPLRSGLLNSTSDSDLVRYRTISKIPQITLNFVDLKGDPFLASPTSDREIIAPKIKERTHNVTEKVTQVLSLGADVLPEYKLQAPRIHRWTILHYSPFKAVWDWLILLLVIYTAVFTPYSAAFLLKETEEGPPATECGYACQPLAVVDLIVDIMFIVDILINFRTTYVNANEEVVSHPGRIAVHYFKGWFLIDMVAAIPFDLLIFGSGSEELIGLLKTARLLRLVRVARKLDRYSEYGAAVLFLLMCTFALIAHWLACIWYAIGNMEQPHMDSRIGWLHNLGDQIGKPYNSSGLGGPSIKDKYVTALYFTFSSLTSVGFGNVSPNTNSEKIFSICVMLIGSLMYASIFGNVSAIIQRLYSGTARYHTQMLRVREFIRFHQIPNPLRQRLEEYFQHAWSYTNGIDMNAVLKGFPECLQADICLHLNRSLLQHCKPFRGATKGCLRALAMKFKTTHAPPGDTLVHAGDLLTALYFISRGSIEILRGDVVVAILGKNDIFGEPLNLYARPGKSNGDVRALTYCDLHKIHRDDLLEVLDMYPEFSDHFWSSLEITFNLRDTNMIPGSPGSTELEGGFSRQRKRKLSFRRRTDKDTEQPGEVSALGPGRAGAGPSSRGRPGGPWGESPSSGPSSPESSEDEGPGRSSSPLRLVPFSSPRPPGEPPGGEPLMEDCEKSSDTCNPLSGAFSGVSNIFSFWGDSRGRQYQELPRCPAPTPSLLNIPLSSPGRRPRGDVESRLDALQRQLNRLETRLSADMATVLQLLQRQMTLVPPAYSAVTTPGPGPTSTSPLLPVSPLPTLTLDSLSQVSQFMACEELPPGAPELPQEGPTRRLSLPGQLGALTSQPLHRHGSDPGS

First: COC(=O)c1c(NC(=O)CN2C(=O)NC3(CCC(C)CC3)C2=O)sc2c1CCC2 (centres unmarked)
Second: CC(=O)c1ccc(NC(=O)CSc2nc(=O)n(CCN3CCOCC3)c3c2CCC3)cc1
The “hERG current change (%, negative = inhibition) at 1uM” value of the first is lower: 3.38% for the first, 6.41% for the second.

Compared with `N#Cc1ccsc1NC(=O)CN1CCN(c2ccccc2)CC1`, `O=C(NC(=S)NCCCN1CCOCC1)c1cccc2ccccc12` is lower in “hERG current change (%, negative = inhibition) at 1uM” value: 10.5% for the first, 9.38% for the second.

Going from `COc1ccc(NC(=O)CN(C)C(=O)c2cc3c(s2)CCC(C)C3)cc1` (centres unmarked) to `CCOC(=O)c1cc(-c2ccc(OC)cc2)n(CCC(=O)NCCN2CCC(C)CC2)c1C`, the “hERG current change (%, negative = inhibition) at 1uM” value falls from 4.18% to -9.33%.

Going from `COc1ccc2cc(CN(Cc3cccs3)Cc3nnnn3Cc3ccccc3)c(=O)[nH]c2c1` to `CCN(C(=O)CSc1nnc(-c2cccs2)n1N)c1c(N)n(Cc2ccccc2)c(=O)[nH]c1=O`, the “hERG current change (%, negative = inhibition) at 1uM” value rises from 0.0182% to 8.81%.

Compared with `CCCCn1c(N)c(N(CCOC)C(=O)c2ccc(S(=O)(=O)N(CC)c3ccccc3)cc2)c(=O)[nH]c1=O`, `CCn1c(COC(=O)CNC(=O)c2ccccc2F)nc2cc(S(=O)(=O)N(C)C)ccc21` is lower in “hERG current change (%, negative = inhibition) at 1uM” value: 14% for the first, 10.5% for the second.

Compared with `CCn1cc(C2C(C(=O)Nc3cc(C)ccn3)=C(C)NC3=C2C(=O)CC(C)(C)C3)c(C)n1` (centres unmarked), `CCOc1ccccc1C1NC(=O)NC(C)=C1C(=O)OC1CCCC1C` (centres unmarked) is lower in “hERG current change (%, negative = inhibition) at 1uM” value: 9.57% for the first, -11.9% for the second.

Going from `O=c1cc(Cn2nnc(-c3ccc(Cl)cc3)n2)nc2sccn12` to `O=C1c2ccsc2SCCN1Cc1cccc(Cl)c1`, the “hERG current change (%, negative = inhibition) at 1uM” value rises from -5.47% to 8.86%.

First: c1ccc(Cn2nnc3c(N4CCCCCC4)ncnc32)cc1
Second: Cn1c(=O)c2c(nc3n2CCCN3CCc2ccccc2)n(C)c1=O
The “hERG current change (%, negative = inhibition) at 1uM” value of the first is higher: 8.09% for the first, -1.31% for the second.

Compared with `CCOc1ccc(NC(=O)N2CCC(C(N)=O)(N3CCCCC3)CC2)cc1`, `CCN(CC)S(=O)(=O)c1ccc(NC(=O)c2ccc(OCC3CCCO3)cc2)cc1` (centres unmarked) is higher in “hERG current change (%, negative = inhibition) at 1uM” value: -3.92% for the first, 14.6% for the second.

Going from `CC(=O)Nc1ccc(S(=O)(=O)NCc2ccccn2)cc1` to `COC(=O)c1ccc(NC(=S)Nc2ccccn2)cc1`, the “hERG current change (%, negative = inhibition) at 1uM” value rises from 16% to 22.6%.

First: CN1CCC(CO)(Cc2ccccc2)CC1
Second: COc1cccc(NC2CC(=O)N(CCc3ccccc3)C2=O)c1 (centres unmarked)
The “hERG current change (%, negative = inhibition) at 1uM” value of the first is lower: 4.74% for the first, 9.11% for the second.

Compared with `CCCN(CCC)C(=O)Cn1c2ccccc2c2nc(=O)cc(C)n21`, `CCC(C)Cn1c(C(C)C)nc2ccccc21` (centres unmarked) is lower in “hERG current change (%, negative = inhibition) at 1uM” value: 15.5% for the first, 2.84% for the second.

Compared with `COc1ccc(C2(O)C(=O)Nc3ccccc32)cc1` (centres unmarked), `COc1ccc(C(=O)Nc2ccc(S(=O)(=O)Nc3cnc4ccccc4n3)cc2)cc1` is higher in “hERG current change (%, negative = inhibition) at 1uM” value: 5.32% for the first, 15.1% for the second.

First: Cc1ccc(SCCC(=O)Nc2cccnc2)cc1
Second: Cc1ccc(OCCCC(=O)N(C)CC(=O)Nc2ccccc2Br)cc1
The “hERG current change (%, negative = inhibition) at 1uM” value of the first is higher: 14.5% for the first, 9.79% for the second.

First: CC(NC(=O)OCc1ccccc1)C(=O)OCN1C(=O)c2ccccc2C1=O (centres unmarked)
Second: Cc1cccc(NC(=O)c2ccccc2NC(=O)Cc2ccccc2)c1C
The “hERG current change (%, negative = inhibition) at 1uM” value of the first is lower: 8.71% for the first, 9.55% for the second.

First: N#C/C(N)=C(/C#N)N=Cc1cccc(Cl)c1
Second: COc1ccccc1N=NC1C(=O)N(C(N)=S)N=C1C (centres unmarked)
The “hERG current change (%, negative = inhibition) at 1uM” value of the first is lower: 6.04% for the first, 15.1% for the second.

Compared with `O=C1OC(=O)c2c(Br)c(Br)c(Br)c(Br)c21`, `COc1cc(/C=N/NC(=O)C(C)Nc2n[nH]c(=O)[nH]c2=O)cc(OC)c1O` (centres unmarked) is lower in “hERG current change (%, negative = inhibition) at 1uM” value: 14.9% for the first, 13.5% for the second.

Going from `O=C(NCc1ccc2c(c1)OCO2)C(c1ccco1)N(C(=O)c1csnn1)c1ccccc1` (centres unmarked) to `O=C1CN(C(=O)COC(=O)c2ccccc2NCc2ccco2)c2ccccc2N1`, the “hERG current change (%, negative = inhibition) at 1uM” value rises from -3.53% to 6.95%.

Going from `S=c1[nH]nc(-c2cccnc2)n1-c1ccccc1` to `c1ccc(-c2nc3ccccc3c3nncn23)cc1`, the “hERG current change (%, negative = inhibition) at 1uM” value falls from 13.3% to 9.16%.

First: OC1NC(=S)N(c2ccccc2)C1O (centres unmarked)
Second: Cn1c(-c2ccccc2O)cc2ccccc21
The “hERG current change (%, negative = inhibition) at 1uM” value of the first is lower: 1.2% for the first, 9.74% for the second.

Compared with `C=CCN1C(=O)CSc2ccc(C(=O)NCc3ccc(F)cc3)cc21`, `Cc1ccc(CNCCc2ccccc2F)cc1.Cl` is lower in “hERG current change (%, negative = inhibition) at 1uM” value: 4.23% for the first, -8.57% for the second.

First: O=C(O)c1cc(N/N=C2/CC(c3ccccc3)Oc3ccccc32)ccc1Cl (centres unmarked)
Second: CC(C)C(=O)NC(=S)Nc1ccccc1C(=O)Nc1ccccc1
The “hERG current change (%, negative = inhibition) at 1uM” value of the first is lower: 13.3% for the first, 16.3% for the second.

Compared with `O=C(Nc1ccnn1C1CCN(C(=O)c2cc(Cl)ccc2F)CC1)C1CCOC1` (centres unmarked), `CC(C)n1cc(CN2CCC(C(=O)Nc3ccc(Oc4ccccc4F)cc3)CC2)cn1` is lower in “hERG current change (%, negative = inhibition) at 1uM” value: 25% for the first, -46.2% for the second.

Going from `CCc1nnc(NC(=O)CSc2nnc(-c3ccc(OC)cc3)n2C)s1` to `CCNS(=O)(=O)c1ccc2nc(NC(=O)c3cccnc3)sc2c1`, the “hERG current change (%, negative = inhibition) at 1uM” value falls from 12.9% to 8.8%.

First: CCc1ccc(N2CC(C(=O)NC3CC3)CC2=O)cc1 (centres unmarked)
Second: Cc1ccc(C)c(SCC(=O)NC(=O)NC2CCCC2)c1
The “hERG current change (%, negative = inhibition) at 1uM” value of the first is higher: 11.8% for the first, 6.35% for the second.

Going from `Cc1cccc(NC(=O)NC2CCCc3ccccc32)c1` (centres unmarked) to `Cc1ccccc1-n1c(C)cc(/C=N/NC(=O)c2ccncc2)c1C`, the “hERG current change (%, negative = inhibition) at 1uM” value falls from 14.3% to 4.1%.

Going from `Cc1cc(N2CCN(C(=O)c3ccco3)CC2)n2nc(C)nc2n1` to `O=C(NNC(=O)c1ccc(S(=O)(=O)N2CCCCC2)cc1)c1ccccc1`, the “hERG current change (%, negative = inhibition) at 1uM” value rises from -14.7% to 10.3%.

Compared with `C[C@@H](O)CC(=O)[O-].[Na+]`, `COc1cc(/C=C2/SC(=S)N(CC(=O)Nc3cccnc3)C2=O)cc(OC)c1OC` is higher in “hERG current change (%, negative = inhibition) at 1uM” value: 1.5% for the first, 8.28% for the second.

First: NS(=O)(=O)c1ccc(S(=O)(=O)N2CCCC2)cc1
Second: CCOc1ccccc1CNCCOC.Cl
The “hERG current change (%, negative = inhibition) at 1uM” value of the first is lower: -1.12% for the first, 0.0956% for the second.

`CCOc1c(Cl)cc(CNC(C)(C)CC(C)(C)C)cc1OC.Cl` was tested, and the “hERG current change (%, negative = inhibition) at 1uM” value was -5.44%.
